Among all 310,000 compounds or so, about 14,000 (4.5%) showed an effect of 50% or more. Effects have a minus sign here. The list shows a part of the results.
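Note: peak tail current of the secondary pulse compared with the same well before compound.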

In this experiment the target is human ether-à-go-go-related gene (hERG) potassium channel (human, UniProt Q12809). Nature of the experiment: primary screen, population patch clamp on CHO cells stably expressing hERG.
Chain of human ether-à-go-go-related gene (hERG) potassium channel (Q12809 whole entry, looked up): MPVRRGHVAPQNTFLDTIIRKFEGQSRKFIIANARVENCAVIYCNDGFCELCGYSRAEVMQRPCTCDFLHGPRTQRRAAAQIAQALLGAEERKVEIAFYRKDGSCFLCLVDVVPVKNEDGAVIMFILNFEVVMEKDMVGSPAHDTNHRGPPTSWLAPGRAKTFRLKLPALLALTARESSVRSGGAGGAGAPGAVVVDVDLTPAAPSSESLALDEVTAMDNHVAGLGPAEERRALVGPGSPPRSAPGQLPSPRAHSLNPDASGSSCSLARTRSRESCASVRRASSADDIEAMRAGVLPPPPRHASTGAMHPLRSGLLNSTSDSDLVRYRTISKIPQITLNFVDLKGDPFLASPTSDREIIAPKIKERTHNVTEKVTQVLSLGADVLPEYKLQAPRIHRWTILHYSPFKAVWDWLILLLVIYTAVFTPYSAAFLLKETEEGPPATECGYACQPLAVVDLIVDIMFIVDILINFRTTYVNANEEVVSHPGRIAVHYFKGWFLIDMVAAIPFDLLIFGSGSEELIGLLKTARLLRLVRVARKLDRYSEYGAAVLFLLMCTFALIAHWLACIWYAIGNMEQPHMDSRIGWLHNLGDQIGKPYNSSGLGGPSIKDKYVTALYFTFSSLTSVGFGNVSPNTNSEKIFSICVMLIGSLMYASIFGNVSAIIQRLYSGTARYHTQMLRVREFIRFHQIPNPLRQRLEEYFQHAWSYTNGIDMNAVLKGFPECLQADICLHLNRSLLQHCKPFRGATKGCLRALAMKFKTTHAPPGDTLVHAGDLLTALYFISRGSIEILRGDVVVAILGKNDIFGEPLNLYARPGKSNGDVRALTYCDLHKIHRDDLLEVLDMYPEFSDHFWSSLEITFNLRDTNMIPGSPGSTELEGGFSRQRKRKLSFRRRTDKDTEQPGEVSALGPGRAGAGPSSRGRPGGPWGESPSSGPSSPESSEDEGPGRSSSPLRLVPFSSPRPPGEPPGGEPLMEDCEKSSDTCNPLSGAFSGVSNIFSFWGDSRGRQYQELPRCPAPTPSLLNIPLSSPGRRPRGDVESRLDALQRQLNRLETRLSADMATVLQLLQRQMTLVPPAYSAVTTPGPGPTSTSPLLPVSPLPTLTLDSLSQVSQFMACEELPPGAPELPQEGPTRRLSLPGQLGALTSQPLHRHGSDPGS
Turning to `Cc1cccc(NS(=O)(=O)c2ccc3[nH]c(=O)cc(C(=O)O)c3c2)c1`, the “hERG current change (%, negative = inhibition) at 10uM” value stood at 13.6%.
As for `CC(=O)Oc1cc(O)c2c(=O)c(OC(C)=O)c(-c3ccc(OC(C)=O)c(OC(C)=O)c3)oc2c1`, the figure is 8.17%.
With `CCCn1nnnc1COc1ccc(C(N)=O)cc1` the figure was 14.7%.
With `CC(NC(=S)Nc1ccc(S(N)(=O)=O)cc1)c1ccc2c(c1)OCO2` (centres unmarked) the figure was 5.78%; with `c1ccc(-c2nnc3sc(-c4ccncc4)nn23)cc1`, -18.1%.
Consider `CCN(CC(=O)Nc1ccc(NC(C)=O)cc1)C(=O)/C=C/c1c(C)nn(-c2ccc(F)cc2)c1C`, for which the “hERG current change (%, negative = inhibition) at 10uM” value was 9.95%.
Take `Cc1ccc(C2Nc3ccccc3C(=O)N2Cc2ccco2)cc1` (centres unmarked): the “hERG current change (%, negative = inhibition) at 10uM” value is on record as -32.5%.
`C/C(=N\Nc1cc(Cl)nc(C)n1)c1ccccc1`: the “hERG current change (%, negative = inhibition) at 10uM” value was -3.88%.
On to `COC(=O)COc1ccc2c(c1)O/C(=C\c1ccco1)C2=O`, for which the “hERG current change (%, negative = inhibition) at 10uM” value was 14.2%.
As for `CCOc1ccc2nnc(-c3ccc(Br)cc3)n2n1`, the figure is -5.3%; as for `N#Cc1c(C(F)(F)F)cc(-c2ccc(F)cc2)nc1SCC(=O)O`, 6.06%.
Turning to `COc1ccc(CCNC(=O)CCC(=O)N2CCN(S(=O)(=O)c3ccc(Cl)cc3)CC2)cc1OC`, the “hERG current change (%, negative = inhibition) at 10uM” value was -11%.
With `Cc1ccc(OCC(=O)c2cc(C)n(C3CC3)c2C)c([N+](=O)[O-])n1` the figure was -6.03%; with `O=C(Cc1c[nH]c2ccccc12)NCc1ccc(Cl)cc1Cl`, -0.423%; with `CCOC(=O)C1(CC2CC2)CCN(C(=O)c2cccnc2C)CC1`, 9.7%.
Take `CCOc1ccc(N2C(=O)CN(CC(=O)OC)C2=S)cc1`: the “hERG current change (%, negative = inhibition) at 10uM” value is given as 0.546%.
On to `C=C(C)CSc1nc2nc(C)c(Br)cc2[nH]1`, for which the “hERG current change (%, negative = inhibition) at 10uM” value is -8.11%.
With `O=C(OCc1cc2ccccc2[nH]c1=O)c1ccco1` the figure was 10.8%.
`CCC(=O)NCCN1CCN(C(=O)CC)CC1`: the “hERG current change (%, negative = inhibition) at 10uM” value stood at 3.27%.
Regarding `OCCNCCOc1ccccc1F`, the “hERG current change (%, negative = inhibition) at 10uM” value came out at 11.1%.
For `CCOc1ccccc1NC(=O)C1(S(=O)(=O)c2ccc(Cl)cc2)CC1`, the “hERG current change (%, negative = inhibition) at 10uM” value came to 2.96%.
Take `CC(=O)Nc1cccc(-c2csc(N)n2)c1`: the “hERG current change (%, negative = inhibition) at 10uM” value stood at 18.1%.
Regarding `CCOc1cc(C(=O)Nc2ccncc2)cc(OCC)c1OCC`, the “hERG current change (%, negative = inhibition) at 10uM” value came to 0.149%.
With `Cc1ccccc1NC(=O)c1ccc(F)c(S(=O)(=O)NCC2CCCO2)c1` (centres unmarked) the figure was 14.2%; with `CCC(=O)c1ccc(OCC(O)CN(CCc2ccccc2)Cc2ccccc2)cc1.Cl` (centres unmarked), 5.17%.
With `Cc1nc2ncnn2c(N2CCCC(C(=O)Nc3ccccc3Br)C2)c1C` (centres unmarked) the figure was -60.2%.
Take `COc1ccc(NC(=O)C2CCC(CNS(=O)(=O)c3cccs3)CC2)cc1OC` (centres unmarked): the “hERG current change (%, negative = inhibition) at 10uM” value is reported as -12%.
Turning to `O=C(NCCCCCNC(=O)c1cccnc1)c1cccnc1`, the “hERG current change (%, negative = inhibition) at 10uM” value is -0.498%.
With `O=C(NC1CCN(Cc2ccccc2)CC1)C1CCN(S(=O)(=O)c2ccccc2)CC1`, the “hERG current change (%, negative = inhibition) at 10uM” value is -28.8%.
For the molecule `COc1cc(/C=C(\C#N)C(=O)NCC2CCCO2)c([N+](=O)[O-])cc1OC` (centres unmarked), the “hERG current change (%, negative = inhibition) at 10uM” value is 1.12%.
Turning to `CCOC(=O)c1c(Cc2ccc(Cl)cc2)c[nH]c1C`, the “hERG current change (%, negative = inhibition) at 10uM” value came out at 12.3%.
With `CCOC(=O)Cc1csc(NC(=O)CSc2nnnn2-c2ccc(C)cc2C)n1` the figure was 11.1%; with `CCOc1ccc(OCC(=O)N(C)c2c(N)n(Cc3ccccc3)c(=O)[nH]c2=O)cc1`, 5.49%; with `CCOC(=O)c1cc(C(O)(C(=O)OC)C(F)(F)F)c(/N=C/N(C)C)o1` (centres unmarked), -6.94%.
Take `COc1ccc(CCNC(=O)C2CC(c3ccc(C(F)(F)F)cc3)=NO2)cc1` (centres unmarked): the “hERG current change (%, negative = inhibition) at 10uM” value is reported as -6.74%.
As for `CCOCC(=O)Nc1ccccc1C(=O)OCC`, the figure is -9.13%; as for `O=C(CC(=O)Nc1ccccn1)Nc1ccccn1`, 5.13%; as for `Cn1c(CCNC(=O)c2cc(COc3ccc(F)c(F)c3)on2)nc2ccccc21`, -13.8%.
For the molecule `COC(=O)C1=C(C(=O)OC)[C@@H]2N(C)c3ccccc3[C@@]23C[C@@H](C(=O)OC)N(C(=O)c2cccs2)C3=N1`, the “hERG current change (%, negative = inhibition) at 10uM” value is given as -10.1%.
As for `COc1ccc(-c2cc(=O)c3c(OC)c(OC)c(OC)cc3o2)cc1`, the figure is -16.5%; as for `CCOc1ccc(S(=O)(=O)N(CC)CC(=O)NC2CC2)cc1`, -7.6%; as for `CCOC(=O)C1(C)NC(c2ccc(N(C)C)cc2)C2C(=O)N(CC)C(=O)C21` (centres unmarked), 2.31%.
With `Cc1ccc(C(=O)N2CCN=C2SCc2ccc([N+](=O)[O-])cc2)cc1C` the figure was 2.84%.
With `CCN1C(=O)/C(=C2/C=Cc3ccccc3N2C)OC1=S` the figure was 9.46%.

The values are drawn from paper PMC4336329 (PLoS ONE, 2015).
